Reference: the supplement of paper PMC3334620
Over roughly 33,000 sequences, “E-score (-0.5 to 0.5)” has its median near -0.016; the highest 2% begin near 0.31. The list shows a part of the results.

The sequences below were run against Cst6 (UniProt P40535) (assay: PBM E-score (8-mer binding enrichment) (E-score (-0.5 to 0.5)); higher = stronger / more preferred TF binding; most listed sequences are background and not binding sites). Details: protein concentration: 200 nM; construct: GST-DNA-binding domain.
Method in brief: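 Using PURExpress in vitro transcription/translation, GST-tagged yeast transcription factors were made in full-length or DNA-binding-domain form. These were applied at about 100-200 nM to double-stranded universal all-10-mer Agilent arrays, and bound protein was detected with fluorescent anti-GST. Scans were normalised with masliner before the Universal PBM Analysis Suite assigned E-scores to ungapped eight-base words pooled with their reverse complements.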

Row | Sequence | PBM E-score
1 | AACCTGGT | -0.128
2 | ACCAACAG | -0.104
3 | ACCCCGCC | -0.0543
4 | CCCGCCCA | 0.0519
5 | CAATCTGA | 0.0175
6 | CAGCTCAC | -0.129
7 | CTTTGTCC | -0.0809
8 | ACGTTAGT | 0.239
9 | CCCCTTCA | -0.248
10 | TCAGCACA | 0.171
11 | ACGGATGA | 0.0946
12 | ATCCAGAT | -0.0912
13 | GTTCGGAA | -0.0377
14 | GGCTAGGA | -0.159
15 | AATCCGCC | -0.259
16 | AAATGCTT | -0.00158
17 | CCGATCGG | 0.0601
18 | CTCCATGC | -0.125
19 | AGGGTGTG | -0.146
20 | GAGTCGGC | -0.234
21 | CGTCAGAA | 0.286
22 | CTCTTTCA | 0.0197
23 | ACCTTCGT | -0.0927
24 | AGTGGCGC | 0.00481
25 | GCGTACCA | -0.0573

Row | Sequence | PBM E-score
26 | GGCAGACC | -0.318
27 | GTTCTGAA | 0.143
28 | CGGAGCGC | -0.159
29 | TAGGCTCA | -0.14
30 | CAGCACCA | -0.308
31 | GGTCCGGA | -0.177
32 | CGATGTTC | -0.222
33 | CTATACAA | 0.0119
34 | TAATAATA | 0.259
35 | GCGGCGCA | 0.197
36 | ATTGGTGC | 0.0848
37 | GAACAAGA | 0.131
38 | CACAACTG | -0.146
39 | GGCAGCAC | -0.0936
40 | CTTGGAAC | -0.0185
41 | CAGATCCG | -0.018
42 | AAATAGCC | 0.0281
43 | GAAGTATA | 0.0932
44 | GAGCATGA | 0.0252
45 | CCTGCACC | -0.35
46 | CATTATCC | 0.0923
47 | CACGGTAC | -0.228
48 | GCGTTCTA | -0.031
49 | AAAGATGG | -0.0227
50 | ATCGTTTC | 0.0327

Row | Sequence | PBM E-score
51 | GCAAAGCC | -0.291
52 | AAAACTAG | 0.116
53 | CCAGAACA | -0.189
54 | CGGTCTAA | 0.00521
55 | CGGGCGTA | -0.294
56 | TCTTGACA | 0.053
57 | ACTAAGTG | 0.0381
58 | GAGGAGCA | -0.0417
59 | AAAAAGTC | 0.087
60 | AACGACAT | 0.199
61 | CAACGAGC | 0.0273
62 | GTCCAAAA | 0.179
63 | AATCGTGC | 0.195
64 | AAGGCTGC | -0.132
65 | CTTTCAGA | 0.088
66 | TGCAGACA | 0.0731
67 | TGAATCCA | 0.0707
68 | CTGAACCA | -0.0697
69 | GACCATGA | 0.15
70 | CTAGTCGA | -0.192
71 | ACCAGACA | 0.0355
72 | CACTCCAG | -0.0557
73 | ACAGCAGC | -0.0573
74 | CAGCTGAG | -0.181
75 | CTATACCA | 0.00742

Row | Sequence | PBM E-score
76 | CGAGTCAG | -0.104
77 | GGACGTAC | -0.065
78 | AGTAGTAT | -0.00796
79 | AACTTGAT | 0.241
80 | GAAGTAAA | 0.0207
81 | CTAGGCGC | 0.145
82 | AGTGAGAC | -0.049
83 | TCATGGGA | 0.0882
84 | CGCCAATA | 0.0635
85 | ACTTACCT | -0.0885
86 | CGACGGCG | 0.257
87 | AATGCCTA | -0.0283
88 | ATAAGAAT | 0.253
89 | ATACGACA | 0.186
90 | ACATTACA | 0.177
91 | ACCAGTAA | 0.0918
92 | AAAGGCCA | -0.109
93 | AGCAACGC | 0.0203
94 | CATAGAGC | -0.0927
95 | AATGCACC | -0.0312
96 | CTGGAAGC | -0.22
97 | AAAGCTAT | 0.0617
98 | AATTAACC | 0.052
99 | ACCCGGTA | -0.119
100 | TGCTTGAA | 0.0953

Row | Sequence | PBM E-score
101 | GAACGCCA | -0.0331
102 | GAGGTTCC | -0.197
103 | CCTCTTGC | -0.138
104 | CTGAGGTC | 0.0178
105 | CAAGTGAC | 0.241
106 | CTGGGTTA | -0.0327
107 | ACTGACTC | -0.138
108 | GATCCATA | -0.0534
109 | CCACATTA | -0.0598
110 | ACGGAGGA | -0.157
111 | CGCGAGTA | 0.0528
112 | AACGACGG | 0.0574
113 | CCTCGGGC | -0.228
114 | CATTGTGA | 0.0379
115 | CTCCCCCA | -0.29
116 | CCAGGGGC | -0.191
117 | CTCACCTC | 0.0122
118 | GATGACAA | 0.333
119 | AGGCGCTC | -0.119
120 | GGCCTCAC | -0.0728
121 | AAACTGTG | 0.0247
122 | ATCTGCTG | 0.0566
123 | ATATGCGA | 0.127
124 | GCGAACAC | -0.195
125 | CCTTGCAG | -0.181

Row | Sequence | PBM E-score
126 | TAACTCAA | 0.0592
127 | AAACCGGC | -0.111
128 | GCTTGCAC | -0.175
129 | CCTATCAC | -0.145
130 | CGAGACGA | -0.253
131 | GGCGCCCC | 0.0324
132 | ATTAGGCA | 0.104
133 | AGGAATAT | 0.127
134 | TGCTGAAA | 0.0851
135 | AGCGCATC | -0.134
136 | CATCGCGG | 0.0064
137 | ATGCCATG | 0.106
138 | CTGTCTCC | -0.197
139 | ACGCTCCT | -0.0423
140 | TACAGGTA | 0.0112
141 | AAATCACT | 0.193
142 | CACATTGG | 0.0518
143 | ATCAATCA | 0.165
144 | CGGCTGAA | -0.0653
145 | ATCTGGAG | -0.173
146 | TAGGTTGA | 0.0193
147 | CCGTGTGC | 0.0884
148 | GCAAGACC | -0.153
149 | CCTTCGGC | -0.0677
150 | CGCAGCCC | -0.206

Row | Sequence | PBM E-score
151 | GGACAGCC | -0.239
152 | GGCCGACA | -0.194
153 | AGCGGCCG | 0.0238
154 | CGGCTTCC | 0.0101
155 | AACCCTCA | -0.226
156 | GCGCTAGC | -0.242
157 | ACTGAACT | -0.122
158 | AGGCTGCA | 0.0157
159 | GACCTATA | 0.189
160 | CAGGTTGC | 0.129
161 | CCGGCTAG | -0.403
162 | GGCCACCC | -0.184
163 | GGGAGAAA | -0.12
164 | GTGTATTA | 0.277
165 | AGTGCACT | -0.0719
166 | GCCACGCA | -0.108
167 | AAGTGTGA | 0.14
168 | ATCTGGAA | 0.184
169 | CCGTACAC | -0.0178
170 | CAAGGGGG | -0.278
171 | ATAGTAAT | 0.273
172 | AGACCAGG | -0.223
173 | AGTTACAA | 0.182
174 | CGTCCTAC | -0.16
175 | TCCTTACA | 0.0285

Row | Sequence | PBM E-score
176 | GAACATCC | 0.101
177 | CCCATACC | 0.00425
178 | AACTAGAT | 0.0586
179 | GACGGCGC | 0.271
180 | AGCGCAAA | 0.0469
181 | GTGCTAGA | -0.12
182 | GGAAAAAC | 0.143
183 | GGCATTCA | 0.0485
184 | GCAGTGAC | 0.17
185 | CACGCGTA | 0.0842
186 | AATGCTGC | 0.0499
187 | CTGTACCA | -0.19
188 | ATGACGTG | 0.491
189 | ACGAAGCC | -0.0878
190 | GACCACGA | -0.115
191 | TCTATGCA | -0.0471
192 | ACACTAAG | -0.00502
193 | AACCAATT | 0.129
194 | AAGCTAGT | -0.0293
195 | CTTTGAAA | 0.0339
196 | TCAGTCCA | -0.209
197 | GCTGTCCA | -0.0895
198 | ATCAATAA | 0.225
199 | CGCTGCGC | -0.228
200 | AAGTCGAA | -0.13

Row | Sequence | PBM E-score
201 | CGTCAAAC | 0.126
202 | AACCGCTA | -0.0625
203 | AAAGATCT | -0.0274
204 | TACTTATA | -0.0584
205 | CATGTCGA | -0.0991
206 | TAATTTGA | 0.118
207 | AAACCTTT | -0.0284
208 | ATACGTTG | 0.0931
209 | CGCATCAC | 0.183
210 | ATCTCGCC | -0.111
211 | TCCGGCCA | -0.271
212 | TATAGCCA | -0.00222
213 | CGGCGGCA | 0.0574
214 | CGGCAGTC | 0.0637
215 | CCAGTTCC | -0.194
216 | ATAGCAAC | 0.0205
217 | AAGAGGGA | -0.27
218 | CGACGCAA | -0.0619
219 | TCGCCGCA | 0.135
